B1: OR4K15 (parent)
chain: GUUAACGGUCAUAGGCCAUGGAAACUAGGAGCACCAUUUCGCUGCCAGUGAAGAAAUGAACAAAGAAAAUCUGGGCCAGGCAGGCAUCAAAAGAAAUAGUCUUGCGCUCAACCAGAAAGUCUGUAAUCAUUUUAAGGGUA

The source gives no read counts; variants with many changes may rest on few reads.

The data set covers variants of B1. Nature of the data set: self-cleavage, relative activity (ratio to wild type); higher = more cleavage; in vitro, sequencing; the parent is a self-cleaving ribozyme.
With U2C U39C A55G A78U A129G, the self-cleavage came out at 0.13. As to U2C U38C A56C U132C, the self-cleavage was found to be 0.62.

In the case of U2A A27G A55G A111U U122C, the self-cleavage was 0.07. The result for U2C A60G A63G U130A reads 0.54. Consider U2A G28A A114G, for which the self-cleavage is 0.41. Turning to U2A A18G A125G, the self-cleavage is 1.06.

Consider U2C U37A A68G, for which the self-cleavage turned out to be 1.08.

For U2G A30U U37C A114G A116U, the self-cleavage is 0.08. As for U2C A68G U100C U120C, the self-cleavage was 1.03. On to U2C A5G A23U G58A A117G, for which the self-cleavage is 1.24.

U2C U97C U132C: the self-cleavage was found to be 0.52. For the variant U2A A67G U131C, the self-cleavage worked out at 1.11. Take U2C C71A A82G A114U: the self-cleavage came out at 0.05. For the variant U2C A66G A98G, the self-cleavage came to 0.29. On to U2A G20A A59G, for which the self-cleavage was found to be 1.15. As for U2A A60U A86U, the self-cleavage was 1.54.

With U2C A24G U43A A63G U72A A140G, the self-cleavage was 0.64. In the case of U2C G28A A33G A86G A118G A125G, the self-cleavage turned out to be 0.04. Turning to U2C A78G A82U, the self-cleavage was found to be 0.17.

As for U2C A63G A117G, the self-cleavage turned out to be 1.62. The result for U2C A51G U127C reads 0.35; that for U2C U3C A30G G44A A82G, 0.81; that for U2C U26C A91U, 1.06. Regarding U2C A64U U87C U133A, the self-cleavage is 0.25.

Regarding U2C A56G G75A A78G G104A A110U, the self-cleavage came out at 0.02.

In the case of U2C U38C A51G A62G A69G, the self-cleavage came to 0.85. The result for U2C A23U A67G reads 1.55; that for U2A A62U A68G A86G, 1.23; that for U2A U9C A22G U87C U100G U131C, 1.34. Regarding U2A U70C G99U, the self-cleavage came to 0. G1A A24G U43C A52G: the self-cleavage is 1.05. Turning to U2C A78U A94U, the self-cleavage came to 0.66.

Turning to U2C U57G A94G C128A, the self-cleavage is 0.46. For the variant U2C G7A A18U A94U, the self-cleavage was determined as 1.14.

Turning to G1A A51G A56G G79U U132C, the self-cleavage is 1.01. The result for U2C U26C U70A U108C C112A reads 0.02; that for U2C A62U A67G, 0.28; that for G1U G7A A54G A82U, 0.16.

On to U2C U72C U108C, for which the self-cleavage is 0.02. As to U2A A23G A111C A114G, the self-cleavage is 0.01. In the case of U2C A51G A64U A69G A89U, the self-cleavage came out at 0.68. Consider U2C A30G A52G, for which the self-cleavage came out at 2.06.

For the variant U2G A52G A56G C101G, the self-cleavage was 0.18. U2C U39C A91G A126G: the self-cleavage was 0.62. The result for U2C A5G A118G reads 0.68; that for U2C U57C U72C, 0.22; that for U2C U19G A36U U49C A68G A118G, 0.76. Take U2C U19C A78C C88U U102C U108C: the self-cleavage amounted to 0.06. Consider U2A U43C A54G A62U U87A A111G U130C, for which the self-cleavage was 0.05. As to U2A A54G A66G A95U, the self-cleavage was determined as 1.63. Regarding G1U A90G A98G U100C U124C, the self-cleavage was found to be 0.38.

For U2C U38C A59U A86U, the self-cleavage was determined as 1.26. As to G1A A22C A82C, the self-cleavage stood at 0.48.

As to U2C G75C U97C, the self-cleavage came out at 0.08. The result for U2C A30G A86G reads 0.38. Consider G1U A69U U102A, for which the self-cleavage was 1.91. Regarding U2C A62G A111G, the self-cleavage is 0.02.

Take G1U U2G A18G U26A G31C C35A: the self-cleavage was 1.01.

For U2C A5U C40U U49C A68G, the self-cleavage was found to be 0.67. Regarding U2A A60G A66G, the self-cleavage was found to be 1.32. For U2C U43A A52G U72C U102C, the self-cleavage stood at 0.47.

Regarding U2C U12C A56G U72C A89G, the self-cleavage amounted to 0.28. In the case of G1A C107U U139C, the self-cleavage amounted to 0. Regarding U2C A33G A126G U131A U132C, the self-cleavage was determined as 0.89. With U2A A54G A82G, the self-cleavage was 0.73. In the case of U2A A56G C77U A116G U127A A135U, the self-cleavage stood at 1.94.

Take U2C U57C A117G A135G: the self-cleavage stood at 1.52.

As to U2C A24G A51G A78G, the self-cleavage came out at 0.3. Take U2C A33U A89G U102C A111G: the self-cleavage came out at 0.04.

Regarding U2A U57A U124C, the self-cleavage is 1.18.

As to G1C A36G U39C U133C, the self-cleavage came to 1.44.

On to U2C A63U U132C, for which the self-cleavage amounted to 0.77. The result for U2A U9A U38C A60G reads 0.87. The result for U2C A68G A86G A98G U108C reads 0.02; that for U2C A18U G83U A89U, 1.17; that for U2C A59G A68G A114G U122C A125G, 0.05. Take U2C A62U U120C: the self-cleavage was determined as 1.46.

Consider U2A A56G U102C, for which the self-cleavage amounted to 1. The same measure for U2C U19C A27G G104A: 0.09. For U2C U26C A111C A135U, the self-cleavage stood at 0.03.

With U2A G65A A67G A95U, the self-cleavage was 1.43. Regarding U2C U72A A94G, the self-cleavage amounted to 0.21. The result for U2C A63G A78G A129G reads 0.17; that for U2C U72G A89G A126G U131A, 0.12.

Consider G1A G7A A62G, for which the self-cleavage is 1.57. Turning to U2A U37C A68G U102C, the self-cleavage is 0.85. On to U2C A18U U38A A51G A66U U122A, for which the self-cleavage came to 1.01. Take U2C A36U A47G U49C A92G A94G: the self-cleavage amounted to 0.31. Turning to U2C U100A A111U, the self-cleavage turned out to be 0.05.

Consider U2A G7U A55G A94G U108G C113U, for which the self-cleavage is 0. For the variant U2C U87C U122C, the self-cleavage was 0.7. The same measure for U2C A51U A69G: 1.01.

In the case of U2C U72C A111G A118U, the self-cleavage came out at 0.02.

On to U2G A23G A52G G83A U120C, for which the self-cleavage is 0.24. U2C U9C A92U A129G: the self-cleavage was found to be 0.78. On to U2A G29A A118G, for which the self-cleavage was found to be 0.97. As to U2C A18G A114G, the self-cleavage was found to be 1.1. Turning to U2C A92G U100C, the self-cleavage was determined as 1.29. U2C U43C A59G A64G U70C U131C: the self-cleavage stood at 0.25.

Turning to U2C A59G A129G, the self-cleavage amounted to 0.

As to U2C A78U A95G A129G, the self-cleavage was found to be 0.44. For U2A G41A A60G A82U, the self-cleavage amounted to 0.31.

Take U2C U3A A36G U108C U127C: the self-cleavage is 0.01. Take G1A A13G A33G A52U U72C U100C U102C U132G: the self-cleavage was 0.22. On to U2C G84C U100C A135G, for which the self-cleavage turned out to be 0. U2A A23G U72C A114G A118G: the self-cleavage stood at 1.76. In the case of U2C A90G A96G A135U, the self-cleavage turned out to be 0.86. With U2C A59U G73A, the self-cleavage was found to be 0.12. U2A A47U U102A A116G U124C: the self-cleavage amounted to 0.04. On to U2A U43G U127C, for which the self-cleavage was found to be 0.92. Regarding U2C A90G A111G U120C, the self-cleavage came to 0.02. In the case of U2C A11G U43C, the self-cleavage is 1. Turning to U2C U39C A78G, the self-cleavage was determined as 0.35. Regarding U2A U70C A126G, the self-cleavage amounted to 0.54. With U2C A22G A68G, the self-cleavage amounted to 0.74.

For U2C A30G A117G, the self-cleavage is 1.19.

For the variant U2C A95G G119A, the self-cleavage was determined as 1.45. Consider U2C A55G A69G U122A, for which the self-cleavage was found to be 1.17. The result for U2C A23G U39G A54G reads 0.73. U2C C85A A117C: the self-cleavage stood at 0.48. Regarding U2C A22G U57C G75C U87C, the self-cleavage turned out to be 0.11.

Regarding U2A A94G A117G, the self-cleavage worked out at 1.42. Turning to U2A A18U U38C A51G U108C, the self-cleavage stood at 0.07.

Turning to U2C U9C U37C A59G, the self-cleavage worked out at 1.76.

In the case of U2C A22U U72C A126G, the self-cleavage was 0.22. Consider U2C U37C U39C A68U, for which the self-cleavage came to 1.55.

With U2C U12C A52G G53U A82G, the self-cleavage was found to be 1.37. Consider U2C A18G U43C A56G, for which the self-cleavage stood at 0.69.

U2C U124C U132C: the self-cleavage was 0.82. With U2C G29A A68G U132A, the self-cleavage turned out to be 0.83. For the variant G1U U43C A51U, the self-cleavage was found to be 2.2. In the case of U2C A56G A92U U130C, the self-cleavage is 0.88. As for U2A A60G A96G U131C, the self-cleavage came to 1.48. As for U2A A11G A33G, the self-cleavage came out at 0.62.

Regarding U2G A63U A78U, the self-cleavage was found to be 0.7. The same measure for U2C A36G A64G A92G: 1.59; for U2C A5G A82G: 0.52; for U2C U39C A95G U131C U133C: 2.02. With U2C U3C A64G, the self-cleavage was found to be 1. With U2C U26C A116G, the self-cleavage was found to be 0.48.

U2A U120C A135C A140U: the self-cleavage stood at 0.49.

Consider U2A A82U A126C, for which the self-cleavage was found to be 0.1.

On to U2C G15A U19C A23G U49C U87C, for which the self-cleavage is 0.72.

Consider U2C A117G A118G, for which the self-cleavage came out at 0.46. As for U2C U9C A47G A62G, the self-cleavage was found to be 1.33. The same measure for U2C U12A A52C A60U A64G A90G A96G: 0.5; for G1A A60G U72C G75A: 0.51; for U2C U70C G99U U132A: 0.24. With U2C A33C A56G A60U U103A, the self-cleavage was 0.5.

As for U2C A78U U102C, the self-cleavage turned out to be 0.64. As to U2A A18G U100C, the self-cleavage was determined as 1.32. For U2A A24G U43A A69G A126C, the self-cleavage amounted to 1.07. For the variant U2G A60U A78U U87C, the self-cleavage came to 0.49. Consider U2C C40U A67G A92U A111G A117G U133C, for which the self-cleavage stood at 0.

Turning to U2A A98G U108C, the self-cleavage turned out to be 0.06. As for U2C A18U A126G, the self-cleavage came out at 0.64. As to U2C A56G U103C, the self-cleavage was found to be 1.32. As to U2C U39C A90G, the self-cleavage worked out at 0.25. Turning to G1A A54G A55U U103C, the self-cleavage worked out at 1.32. Take U2G A54G U100C U102A A117G: the self-cleavage was determined as 1.75.

For U2C A47G A98G A118U, the self-cleavage worked out at 0.21. The same measure for U2C A11G A13G: 0.84; for U2A U3C A60G A78U U131C: 0.36. On to U2C A22G A36G U102A, for which the self-cleavage stood at 0.93. In the case of G1A A30G A67U U72A, the self-cleavage is 1.04.

On to G1A U2C A54G, for which the self-cleavage worked out at 1.25.

Consider U2C U26A A69G A117G, for which the self-cleavage was 0.67.

Values taken from the RNAGym collection of RNA variant scans (doi:10.7554/elife.90254).
